Our source for the binding signal values is publication PMC10668032.

The other results are listed elsewhere or left out. At the low end of the ranking, values are background and their order means little.

The assay addresses SIX1-Q177R homeodomain (UniProt Q15475). Put plainly: universal protein binding microarray. To be noted: Universal all-10-mer PBM (8x60K, AMADID 030236), 300 nM GST-tagged protein, Alexa Fluor 488 anti-GST; buffer, salt, pH and temperature not stated; high values mean tight binding; most listed sequences are background and not binding sites; double strand, one strand shown.
With AGTACGCG, the binding signal is -0.00462 E-score. Take AAGGTATA: the binding signal is -0.0748 E-score.

In the case of CAGATCAG, the binding signal amounted to 0.125 E-score. For the sequence GTATTACA, the binding signal came out at 0.0751 E-score. Turning to CAAACAGG, the binding signal came out at 0.0871 E-score. The result for AAGAAGAC reads -0.139 E-score. As for AATGGGGC, the binding signal was -0.14 E-score.

Regarding AAGGAGTA, the binding signal was determined as 0.158 E-score.

Consider GTGTTTCA, for which the binding signal was found to be 0.357 E-score. Turning to CGCAATCA, the binding signal is -0.141 E-score. As to AACTCCCG, the binding signal came to 0.181 E-score.

Consider AATCGCAA, for which the binding signal was -0.243 E-score. The result for TACAAATA reads -0.0592 E-score; that for GCAATGCC, -0.092 E-score. To CACGCGGG belongs 0.241 E-score; to ACTAGAAC, 0.0257 E-score. Regarding GCAGCCTA, the binding signal was -0.321 E-score.

Take TGTAGAAA: the binding signal is 0.225 E-score. Take AGAGGAAA: the binding signal was -0.105 E-score. To AATCCTCC belongs -0.0411 E-score. As for GCAATGAA, the binding signal is -0.117 E-score. To CAGGCACG belongs -0.0376 E-score; to ATCTAATG, -0.148 E-score.

As to ACCTTGTC, the binding signal was determined as 0.0228 E-score.

For AAAACGCC, the binding signal was -0.0522 E-score. For CAGGACCG, the binding signal was -0.263 E-score. The result for GCACGCTA reads -0.0536 E-score; that for CGGCCGGA, -0.113 E-score.

As for CTGCGCAC, the binding signal is -0.074 E-score. On to CACGACGA, for which the binding signal was found to be 0.0733 E-score.

As to CGGCACTC, the binding signal was -0.135 E-score. The result for GTTGGAGA reads 0.115 E-score; that for GAAGTGCA, -0.106 E-score. To GAACCGCC belongs -0.0714 E-score. Turning to AAGAAGAT, the binding signal is -0.0845 E-score. The result for GGTGGAAA reads -0.026 E-score.

Turning to CGGGTTAC, the binding signal is 0.159 E-score. The result for TAGGATAA reads 0.0267 E-score. For AGGGTACG, the binding signal stood at 0.108 E-score. Regarding AAAACAGC, the binding signal is -0.208 E-score. To GCCGCTCC belongs 0.0452 E-score; to CCTCCCTA, 0.123 E-score. To GTCACAAC belongs 0.0413 E-score. With CTCTGGTA, the binding signal was 0.004 E-score.

On to AGACCAAG, for which the binding signal was -0.114 E-score. Consider AATCCATT, for which the binding signal was -0.09 E-score.

CATTCGTC: the binding signal is -0.111 E-score. To CACGGAAA belongs 0.188 E-score; to GCCGTCCC, -0.243 E-score; to CGCACAAC, 0.0675 E-score. To CATGTACG belongs 0.0126 E-score. To AGGCGGAA belongs -0.12 E-score. In the case of GCCGTCGC, the binding signal was -0.131 E-score. As for TAAGCCAA, the binding signal was -0.172 E-score. The result for ACATATAT reads -0.0591 E-score; that for GACAATTA, -0.0168 E-score. Take CGACACAC: the binding signal stood at 0.345 E-score. Regarding CTGCCCAG, the binding signal is -0.178 E-score. For the sequence GCCCGTCA, the binding signal was -0.31 E-score. Turning to CTTTCAAA, the binding signal is -0.235 E-score. The result for GAATTCAA reads -0.171 E-score; that for AGTTGTAA, -0.207 E-score; that for TAGCTACA, 0.209 E-score. The result for CCACCACA reads 0.108 E-score; that for ATTCGGGG, 0.176 E-score; that for CCCAAGAC, -0.0246 E-score. To GGTTTCCA belongs -0.0211 E-score; to CGACCGGC, -0.191 E-score; to AACGCTCG, -0.0221 E-score. For TACGATGA, the binding signal is -0.195 E-score. CGGCCAGC: the binding signal was -0.0439 E-score. To CAATGGGG belongs 0.12 E-score; to AGTATGAA, -0.175 E-score; to CACCCTAG, 0.347 E-score. The result for GGGCTCGA reads 0.058 E-score; that for CCAAGTAC, 0.049 E-score.

Consider AAGAGAGA, for which the binding signal was -0.154 E-score. The result for AGATTACG reads -0.0816 E-score. To CTTACACC belongs 0.478 E-score; to CGTCACAG, -0.0338 E-score; to AGCCGTGG, -0.0758 E-score.

For ATTACCCA, the binding signal is 0.0427 E-score. On to ACAACGAT, for which the binding signal was -0.0936 E-score. To GGGAATGA belongs 0.0564 E-score. For GACTACGA, the binding signal is -0.126 E-score. Regarding ACCCTTTG, the binding signal was 0.154 E-score. ATTACGGG: the binding signal was -0.0647 E-score. With CGGCCCAC, the binding signal was -0.102 E-score.

Turning to AGTGACCG, the binding signal was -0.0505 E-score. In the case of AACATGTA, the binding signal is -0.114 E-score. To AGCTCGGC belongs -0.212 E-score. Regarding ACTCCCAA, the binding signal is 0.11 E-score.

For ATTCCACG, the binding signal is -0.066 E-score. The result for AATAAGAG reads -0.0565 E-score; that for GGCAACAA, -0.111 E-score. The result for AGTGTCCC reads 0.379 E-score; that for CCACAGAC, -0.146 E-score; that for CACCCATC, 0.277 E-score.

For the sequence CCCTAACA, the binding signal amounted to 0.181 E-score. Regarding AATGCCGC, the binding signal is -0.144 E-score. To ACGGGACG belongs -0.143 E-score. As for CGGGTATA, the binding signal turned out to be 0.21 E-score.

Turning to TAATGGCA, the binding signal was -0.225 E-score. To TAAGGACA belongs 0.142 E-score; to CATGTATA, -0.157 E-score; to AAATAAAA, -0.0799 E-score. To GTCGAACA belongs 0.119 E-score; to CATGGCTC, -0.167 E-score. Consider GGAAGGGA, for which the binding signal was -0.188 E-score.

Consider GTATGTTA, for which the binding signal worked out at 0.0962 E-score.
